# Reference: the RNAGym collection of RNA variant scans (doi:10.7554/elife.90254)
# Read counts are not given, so values of variants with three or more changes are uncertain.
# B1: LINE1-mini (parent)
# chain: GGCAGAGCUCAACACAGCGUGGCAAAGUGGCUGUGGCUAGACUGCC
# Variants of: B1
# Assay: self-cleavage, relative activity (ratio to wild type); higher = more cleavage; in vitro, sequencing; the parent is a self-cleaving ribozyme
row,Variant,self-cleavage
1,A4C A14G A24U G36C C37U G40C C42A,0
2,G5C A12U G17U G40A,0.06
3,A14C U28G U34G,0.06
4,G29A G30C C37G A41G,0.01
5,G2U C3A C8U C31A,1.37
6,G1U G2C G5U A16G G21A G29A C45A,0.02
7,C3A U9G U43A,0.23
8,C15U U28G U34G U38G,0
9,U20C C31G G36U,0.02
10,G1A U9G G21C G36U,0.41
11,C10U A11C U32A,0.01
12,C10A C13A A39U C46A,0.01
13,G1U C18G G22C U43A,0
14,G5A G7A A11U U43C C46A,0.03
15,C8U C31U C37A G44U,0.01
16,A11U C31A G36U,0.01
17,A25C G33A C45A,0.04
18,G7C G27C C37G C46A,0.02
19,G19A G30A G35U,0.22
20,G1C C13G C18U A24G,0.01
21,G2A C3U G21U A41G C42A,0.21
22,G21U A25G C37U A39C,0.1
23,A26G G27U G30U A41C G44C,0.17
24,U9A A12G G22U C37G,0.01

row,Variant,self-cleavage
1,A12U A14U G21C,0.68
2,A6U A12U G19C,0.29
3,C8G C15G G27U U38C,0.02
4,A14C G21C U28A,0.05
5,G2C G21U G44U,0.17
6,C13G C18G G35C G40A,0.02
7,C8U A14U U20G,0.08
8,A4U G7U U38G,0.04
9,A11G G19U G21A C42A,0.01
10,C10A A24C A26G,0.03
11,G1C G7U G40U,0.11
12,A4U A16U A39G,0.01
13,G2C A4G C37A G40A,0.06
14,U32A C37U A41U,0.03
15,U9A G19U C37A A39C,0.07
16,A6G C10G A11U A16U G19A G21C C23A G29U A39G,0
17,C18U G30C A39C,0.02
18,A6G U9C U43A,0.01
19,C3A C10U G40C,0.09
20,C8G C15G G27A G30A,0.05
21,A14G G17C C18A G29C U34A,0.04
22,C13U G36U G40C,0.02
23,G7U A11C A24U,0.06
24,G19C A41G C46G,0.05

row,Variant,self-cleavage
1,C8G A16G C45A,0
2,C10U A16G A24C A26U G40U G44U,0.03
3,G2U U34G G35A G40C,0
4,U28C U34A C45U,0.29
5,C8U U20C G35A,0.08
6,G5U G7C C15U C23U,0.09
7,C13A G22U U43C,0.12
8,G44A C45A C46A,0.63
9,C8G C10A U20G A39U,0.02
10,C13U A26G G44C,0.11
11,G19U U20G A24U G29C,1.66
12,A4C A41U C45A C46A,0.04
13,A12C G22A U28A C45U,0
14,C15U C23A U34G G36U G44U,0.03
15,A6U C15A A25G,0.02
16,G29C G33C G35A C46A,0.01
17,G7C C23G U38C G44C C46A,0.07
18,A6U G17A A26C G30A U38A C46G,0.14
19,G5A C15A U28C U38A,0.05
20,A4G A6U U34G,0.02
21,C13G C15A A26C C31U U32C G33U,0.03
22,C15U G19U G22A A25C U28A C31A G35C,0.14
23,U9G C13G A14G G44A,0.04
24,C18G G33A G35A,0.03

row,Variant,self-cleavage
1,A4C A14U U34A C46U,0.05
2,G2A U9G A16G C23U,0.01
3,G1C G5A U38A,0
4,A4C A6C G22C A24C,0.06
5,C18A G22C G27C,0.18
6,G19C G30U U32A A41C,0.03
7,C10U G17A C18A G29U,1.22
8,C13A G29U C45U,0.1
9,A16G C18G C46G,0.05
10,A4G G19U U32A C37U,0.04
11,U9G A12G C13A C23G,0.01
12,A6G G7A C45A,0.62
13,U9G A12U U34A A39U G44A,0.03
14,A11U C23G G29A U38G,0
15,G1A G5C G30A G40A,0.09
16,A24C G29U G40A U43C,0.05
17,G1U C3A G17A G22A U43A,0.32
18,A11C G21U C42G,0.02
19,C13A A25G A26C C46G,0.02
20,C13U A16C G29C,0.23
21,G1A C10U G30C,0.65
22,U9A U28G G30A,0.24
23,G5C G27C G29U U32G,0.08
24,A6U C10A C23U,0.03

row,Variant,self-cleavage
1,C15A G36U C37U,0.07
2,G1U G19A A24U G35C C46G,0.06
3,C3A A12G C23U G33U A41G,0.01
4,C8G G19U G21C,0.08
5,C3U C23A G29C G44C,0.1
6,A12G U20G U38G,0.01
7,G7C G27A C45A C46A,0.03
8,C13A G22U C23U G40U,0.12
9,C18A C23G G27U C46G,0.64
10,G1U A12C A25U A26U,0.01
11,C8A C18U G30A,0.1
12,G5U C10U C23U A25G G35A,0.02
13,G1A G17C G36U,0.04
14,U9A G29U C31U G33U G35A C37G,1.29
15,G17U C18U U20C,0.1
16,A4U C18A G21A,0.17
17,G2A U9A A11U A12C C13U,0.03
18,U9C A12G G29U U34G,0.01
19,C3A C13U G30C G36C,0.08
20,C8U A12C A25C G29U,0.04
21,G17U A26G U32G C45U,0.05
22,G2A C8G C45U,0.2
23,G1A C3G U32A,0.28
24,U9C C18A C37U U38G,0.01

row,Variant,self-cleavage
1,G17A G19A G30A,0.53
2,A16G U32A A39C,0.02
3,G1U C3A A12G A14G A26C C46A,0.04
4,G5U A41C C42U,0.01
5,U28G G29U C45G,0.03
6,A16U G21A U32C,0
7,G21U A26U C31A U34G,0.03
8,C10G C15A G19U C37G,0.01
9,C3G G17A G19U C45U,0.07
10,A14G C15U U20G C37A,0.03
11,C13U A14G C18U G19C U28A C45G,0.02
12,G7A C13A G30C,0.1
13,A12G C13U C15A C37U G44U,0.03
14,C15G A26U U32G C45U,0
15,A6C C8G C15U,0.02
16,G5U A6G G40U,0.12
17,A24U U34C A41G G44A C45G,0
18,U9C C23G G27C,0.02
19,G1U G17C A39C,0.03
20,C8U A12U A16G G36A,0.21
21,A14U C15G G22A A24C U28C G33U U34G,0.12
22,U20A U28A C31U,0.36
23,A16U G40A U43A,0.04
24,G2U C13U G33C,0.02

row,Variant,self-cleavage
1,G5U U9A G17A,0.11
2,C3A U20A G22C A25U C45G,0.13
3,G7U G29A C31U G35U,0.01
4,G30C U34A U43A,0.31
5,G2U G5U G22U U34C G44A,0.06
6,G21C G27U A41G,0.91
7,G5U A14U G17A G29U G36C C37A,0.07
8,A11U C15U A26U G30U C31U C42U G44A,0
9,G29C C37G G40C,0
10,G2A G19U U20C G36C G40C,0.03
11,C3G A14C G22U G29U,0.04
12,G22A C31A C46G,0.14
13,G5U C13A G30C C31G,0.04
14,A4C G21U G29C,0
15,G33U A39C G44A,0.02
16,A4U G5A A24U A26U,0.11
17,G1C C8A G19U C31U,0.06
18,G17A G29C G40U,0.14
19,C18U U20A A41U,0.4
20,C13A C18U G22U C31G,0.06
21,A6G A11U G30U,0.01
22,C13U G21U C42G C45G,0.02
23,U9A C10U C23A G30C U43A,0.03
